Some of the results follow.
Columns and labels:
Test in all cases: glycan array binding signal (z-score within array); higher = stronger binding
Conditions in all cases: glycan notation: IUPAC condensed, linker removed
[1] = target: Man(a1-3)[Man(a1-6)]Man(a1-6)[Man(a1-2)Man(a1-3)]Man(b1-4)GlcNAc(b1-4)GlcNAc
Outline: (§1)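 The binding signal is a Z-score computed within each array. Data were drawn from 3228 arrays in the Consortium for Functional Glycomics database, restricted to those with a known protein sequence. Scores were averaged over arrays of the same protein sequence at different concentrations or buffers, and over linkers, and negative values can be taken as non-binding.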

[2] = target: Man(a1-3)[Man(a1-6)]Man(a1-6)[Man(a1-3)]Man
Outline: as §1

[3] = target: Man(a1-3)[Man(a1-6)]Man(a1-6)[Man(a1-3)]Man(b1-4)GlcNAc(b1-4)GlcNAc
Outline: as §1

[4] = target: Man(a1-3)[Man(a1-6)]Man(b1-4)GlcNAc(b1-4)GlcNAc
Outline: as §1

[5] = target: Man(a1-3)[Man(a1-6)]Man(b1-4)GlcNAc(b1-4)[Fuc(a1-6)]GlcNAc
Outline: as §1

[6] = target: Man(a1-6)Man
Outline: as §1

[7] = target: Man(b1-4)GlcNAc
Outline: as §1

[8] = target: MurNAc(b1-4)GlcNAc
Outline: as §1

[9] = target: Neu5Ac(a2-3)Gal
Outline: as §1

[10] = target: Neu5Ac(a2-3)Gal(b1-3)GalNAc
Outline: as §1

[11] = target: Neu5Ac(a2-3)Gal(b1-3)GalNAc(b1-3)Gal(a1-4)Gal(b1-4)Glc
Outline: as §1

[12] = target: Neu5Ac(a2-3)Gal(b1-3)GalNAc(b1-3)Gal(b1-4)GlcNAc
Outline: as §1

[13] = target: Neu5Ac(a2-3)Gal(b1-3)GalNAc(b1-4)[Neu5Ac(a2-3)]Gal(b1-4)Glc
Outline: as §1

[14] = target: Neu5Ac(a2-3)Gal(b1-3)GalNAc(b1-4)[Neu5Ac(a2-8)Neu5Ac(a2-3)]Gal(b1-4)Glc
Outline: as §1

[15] = target: Neu5Ac(a2-3)Gal(b1-3)GalNAc6S
Outline: as §1

[16] = target: Neu5Ac(a2-3)Gal(b1-3)GlcNAc
Outline: as §1

[17] = target: Neu5Ac(a2-3)Gal(b1-3)GlcNAc(b1-2)Man
Outline: as §1

[18] = target: Neu5Ac(a2-3)Gal(b1-3)GlcNAc(b1-2)Man(a1-3)[GlcNAc(b1-4)][Neu5Ac(a2-3)Gal(b1-3)GlcNAc(b1-2)Man(a1-6)]Man(b1-4)GlcNAc(b1-4)GlcNAc
Outline: as §1

[19] = target: Neu5Ac(a2-3)Gal(b1-3)GlcNAc(b1-2)Man(a1-3)[Neu5Ac(a2-3)Gal(b1-3)GlcNAc(b1-2)Man(a1-6)]Man(b1-4)GlcNAc(b1-4)GlcNAc
Outline: as §1

[20] = target: Neu5Ac(a2-3)Gal(b1-3)GlcNAc(b1-3)Gal(b1-3)GlcNAc
Outline: as §1

[21] = target: Neu5Ac(a2-3)Gal(b1-3)GlcNAc(b1-3)Gal(b1-4)GlcNAc
Outline: as §1

[22] = target: Neu5Ac(a2-3)Gal(b1-3)GlcNAc(b1-3)GalNAc
Outline: as §1

[23] = target: Neu5Ac(a2-3)Gal(b1-3)GlcNAc(b1-4)Gal(b1-4)Glc
Outline: as §1

[24] = target: Neu5Ac(a2-3)Gal(b1-3)GlcNAc(b1-6)GalNAc
Outline: as §1

[25] = target: Neu5Ac(a2-3)Gal(b1-3)GlcNAc6S
Outline: as §1

[26] = target: Neu5Ac(a2-3)Gal(b1-3)[Fuc(a1-4)]GlcNAc
Outline: as §1

[27] = target: Neu5Ac(a2-3)Gal(b1-3)[Fuc(a1-4)]GlcNAc(b1-3)Gal(b1-3)[Fuc(a1-4)]GlcNAc
Outline: as §1

[28] = target: Neu5Ac(a2-3)Gal(b1-3)[Fuc(a1-4)]GlcNAc(b1-3)Gal(b1-4)[Fuc(a1-3)]GlcNAc
Outline: as §1

[29] = target: Neu5Ac(a2-3)Gal(b1-3)[GlcNAc(b1-6)]GalNAc
Outline: as §1

[30] = target: Neu5Ac(a2-3)Gal(b1-3)[Neu5Ac(a2-3)Gal(b1-4)]GlcNAc
Outline: as §1

[31] = target: Neu5Ac(a2-3)Gal(b1-3)[Neu5Ac(a2-6)]GalNAc
Outline: as §1

[32] = target: Neu5Ac(a2-3)Gal(b1-3)[Neu5Ac(a2-6)]GlcNAc(b1-3)[Fuc(a1-3)[Gal(b1-4)]GlcNAc(b1-6)]Gal(b1-4)Glc
Outline: as §1

[33] = target: Neu5Ac(a2-3)Gal(b1-3)]Neu5Ac(a2-3)Gal(b1-4)]GlcNAc
Outline: as §1

[34] = target: Neu5Ac(a2-3)Gal(b1-4)Glc
Outline: as §1

[35] = target: Neu5Ac(a2-3)Gal(b1-4)GlcNAc
Outline: as §1

[36] = target: Neu5Ac(a2-3)Gal(b1-4)GlcNAc(b1-2)Man
Outline: as §1

[37] = target: Neu5Ac(a2-3)Gal(b1-4)GlcNAc(b1-2)Man(a1-3)[GlcNAc(b1-4)][Neu5Ac(a2-3)Gal(b1-4)GlcNAc(b1-2)Man(a1-6)]Man(b1-4)GlcNAc(b1-4)GlcNAc
Outline: as §1

[38] = target: Neu5Ac(a2-3)Gal(b1-4)GlcNAc(b1-2)Man(a1-3)[Neu5Ac(a2-3)Gal(b1-4)GlcNAc(b1-2)Man(a1-6)]Man(b1-4)GlcNAc(b1-4)GlcNAc
Outline: as §1

[39] = target: Neu5Ac(a2-3)Gal(b1-4)GlcNAc(b1-2)Man(a1-3)[Neu5Ac(a2-3)Gal(b1-4)GlcNAc(b1-2)Man(a1-6)]Man(b1-4)GlcNAc(b1-4)[Fuc(a1-6)]GlcNAc
Outline: as §1

[40] = target: Neu5Ac(a2-3)Gal(b1-4)GlcNAc(b1-2)Man(a1-3)[Neu5Ac(a2-6)Gal(b1-4)GlcNAc(b1-2)Man(a1-6)]Man(b1-4)GlcNAc(b1-4)GlcNAc
Outline: as §1

[41] = target: Neu5Ac(a2-3)Gal(b1-4)GlcNAc(b1-2)[Neu5Ac(a2-3)Gal(b1-4)GlcNAc(b1-4)]Man(a1-3)[GlcNAc(b1-4)][Neu5Ac(a2-3)Gal(b1-4)GlcNAc(b1-2)[Neu5Ac(a2-3)Gal(b1-4)GlcNAc(b1-6)]Man(a1-6)]Man(b1-4)GlcNAc(b1-4)GlcNAc
Outline: as §1

[42] = target: Neu5Ac(a2-3)Gal(b1-4)GlcNAc(b1-2)[Neu5Ac(a2-3)Gal(b1-4)GlcNAc(b1-4)]Man(a1-3)[GlcNAc(b1-4)][Neu5Ac(a2-3)Gal(b1-4)GlcNAc(b1-4)Man(a1-6)]Man(b1-4)GlcNAc(b1-4)GlcNAc
Outline: as §1

[43] = target: Neu5Ac(a2-3)Gal(b1-4)GlcNAc(b1-2)[Neu5Ac(a2-3)Gal(b1-4)GlcNAc(b1-6)]Man(a1-6)[Neu5Ac(a2-3)Gal(b1-4)GlcNAc(b1-2)Man(a1-3)]Man(b1-4)GlcNAc(b1-4)GlcNAc
Outline: as §1

[44] = target: Neu5Ac(a2-3)Gal(b1-4)GlcNAc(b1-2)[Neu5Ac(a2-3)Gal(b1-4)GlcNAc(b1-6)]Man(a1-6)[Neu5Ac(a2-3)Gal(b1-4)GlcNAc(b1-2)Man(a1-3)][GlcNAc(b1-4)]Man(b1-4)GlcNAc(b1-4)GlcNAc
Outline: as §1

[45] = target: Neu5Ac(a2-3)Gal(b1-4)GlcNAc(b1-3)Gal
Outline: as §1

B1: ECA (Erythrina cristagalli), P83410 (protein)
chain: VETISFSFSEFEPGNDNLTLQGAALITQSGVLQLTKINQNGMPAWDSTGRTLYTKPVHMWDSTTGTVASFETRFSFSIEQPYTRPLPADGLVFFMGPTKSKPAQGYGYLGVFNNSKQDNSYQTLAVEFDTFSNPWDPPQVPHIGIDVNSIRSIKTQPFQLDNGQVANVVIKYDAPSKILHVVLVYPSSGAIYTIAEIVDVKQVLPDWVDVGLSGATGAQRDAAETHDVYSWSFQASLPE
glycan array binding signal (z-score) [1]: 1.29 | glycan array binding signal (z-score) [2]: -0.255 | glycan array binding signal (z-score) [3]: -0.177 | glycan array binding signal (z-score) [4]: -0.023 | glycan array binding signal (z-score) [5]: -0.252 | glycan array binding signal (z-score) [6]: -0.065 | glycan array binding signal (z-score) [7]: -0.235 | glycan array binding signal (z-score) [8]: -0.139 | glycan array binding signal (z-score) [9]: -0.256 | glycan array binding signal (z-score) [10]: -0.433 | glycan array binding signal (z-score) [11]: -0.038 | glycan array binding signal (z-score) [12]: -0.286 | glycan array binding signal (z-score) [13]: -0.342 | glycan array binding signal (z-score) [14]: -0.401 | glycan array binding signal (z-score) [15]: -0.291 | glycan array binding signal (z-score) [16]: -0.269 | glycan array binding signal (z-score) [17]: 0.503 | glycan array binding signal (z-score) [18]: -0.349 | glycan array binding signal (z-score) [19]: -1.87 | glycan array binding signal (z-score) [20]: -0.307 | glycan array binding signal (z-score) [21]: -0.246 | glycan array binding signal (z-score) [22]: -0.115 | glycan array binding signal (z-score) [23]: -0.476 | glycan array binding signal (z-score) [24]: -0.202 | glycan array binding signal (z-score) [25]: -0.018 | glycan array binding signal (z-score) [26]: -0.312 | glycan array binding signal (z-score) [27]: -0.144 | glycan array binding signal (z-score) [28]: 0.104 | glycan array binding signal (z-score) [29]: -0.225 | glycan array binding signal (z-score) [30]: -0.268 | glycan array binding signal (z-score) [31]: -0.146 | glycan array binding signal (z-score) [32]: -0.417 | glycan array binding signal (z-score) [33]: -0.27 | glycan array binding signal (z-score) [34]: -0.082 | glycan array binding signal (z-score) [35]: -0.276 | glycan array binding signal (z-score) [36]: 0.078 | glycan array binding signal (z-score) [37]: -0.395 | glycan array binding signal (z-score) [38]: -0.278 | glycan array binding signal (z-score) [39]: -0.372 | glycan array binding signal (z-score) [40]: -0.288 | glycan array binding signal (z-score) [41]: -0.571 | glycan array binding signal (z-score) [42]: -0.147 | glycan array binding signal (z-score) [43]: 1.04 | glycan array binding signal (z-score) [44]: -0.268 | glycan array binding signal (z-score) [45]: -0.496

Reference: the supplement of paper PMC8728848
